In general, IC50 refers to the point on the concentration scale where inhibition reaches its midpoint. A lower IC50 goes with higher potency. A word on the EC50: it is the concentration giving half of the maximal effect. Low readings indicate an effect from little substance, high ones a need for much substance.

Experiment [1] has as its target T1, 生物素标记的TIGIT (Acrobiosystems, TIT-H82E5) (UniProt Q495A1).
T1 sequence (biotin-labelled (生物素标记), site not stated, looked up): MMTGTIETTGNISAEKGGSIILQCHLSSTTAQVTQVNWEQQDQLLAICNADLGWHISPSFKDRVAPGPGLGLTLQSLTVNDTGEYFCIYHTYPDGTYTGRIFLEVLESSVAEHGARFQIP
The experiment is described as follows: competition ELISA, blocking of biotinylated TIGIT binding to coated CD155.

Experiment [2] has as its target T2, 人TIGIT蛋白 (Acrobiosystems, TIT-H52H3) (human) (UniProt Q495A1).
T2 sequence (looked up): T1 sequence (biotin-labelled (生物素标记), site not stated, looked up)
The experiment is described as follows: ELISA, TIGIT protein coated at 0.5 μg/ml, HRP goat anti-human IgG detection. In general terms: ELISA stands for enzyme-linked immunosorbent assay.

The target in experiment [3] is T3, 人源TIGIT on TIGIT效应细胞 (Jurkat T cells) (human) (UniProt Q495A1).
T3 sequence (looked up): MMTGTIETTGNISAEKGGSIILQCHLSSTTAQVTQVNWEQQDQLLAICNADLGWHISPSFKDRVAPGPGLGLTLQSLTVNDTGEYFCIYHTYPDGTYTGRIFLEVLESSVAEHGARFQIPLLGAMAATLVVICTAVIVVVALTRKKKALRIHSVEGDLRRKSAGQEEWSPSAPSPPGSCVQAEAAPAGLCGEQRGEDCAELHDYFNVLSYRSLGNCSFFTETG
The experiment is described as follows: cell-based or functional assay.

Experiment [4] addresses T1, 生物素标记的TIGIT (Acrobiosystems, TIT-H82E5). The experiment is described as follows: competition ELISA, blocking of biotinylated TIGIT binding to coated CD112.

B1: c7D3 (antibody, part only; not given: light chain, IgG1, part only)
heavy: EVQLQQSGPELVKPGASVKMSCKASGYTFTSYVMHWVKQKPGQGLEWIGYINPYNDGTKYNEKFKGKATLTSDKSSSTAYMELSSLTSEDSAVYYCARRGNGPLRVFAYWGQGTTVTVSS[letters of human IgG1 constant region omitted]
In the case of B1, the IC50 stood at 3.52 nM in experiment [1] and 18.1 nM in experiment [4]. The molecule also returned an EC50 in experiment [2] of 0.105 nM. The molecule also returned a 化学发光信号值 (TIGIT/CD155报告基因实验, IL2启动子调控的荧光素酶) in experiment [3] of 74.5 nM.
